Results: PubChem BioAssay AID488969 (Vanderbilt High Throughput Screening Facility, 2010)
Over roughly 110,000 compounds, “z-score” has its median near -0.1; the highest 2% begin near 2. The list shows a part of the results.

Target: Metabotropic glutamate receptor 8 (Rattus norvegicus) (UniProt P70579)
Assay: rat mGluR8 modulators via GIRK flux, primary screen, cell-based, thallium flux, HTS (AID 488969)
Conditions: HEK293 rat mGluR8, GIRK (G protein-gated inwardly rectifying potassium channel) thallium flux, FluoZin2; at 10 µM; stronger effect = higher value; submaximal glutamate (EC20) added with thallium

Sequence of UniProt P70579 (P70579 whole entry, looked up): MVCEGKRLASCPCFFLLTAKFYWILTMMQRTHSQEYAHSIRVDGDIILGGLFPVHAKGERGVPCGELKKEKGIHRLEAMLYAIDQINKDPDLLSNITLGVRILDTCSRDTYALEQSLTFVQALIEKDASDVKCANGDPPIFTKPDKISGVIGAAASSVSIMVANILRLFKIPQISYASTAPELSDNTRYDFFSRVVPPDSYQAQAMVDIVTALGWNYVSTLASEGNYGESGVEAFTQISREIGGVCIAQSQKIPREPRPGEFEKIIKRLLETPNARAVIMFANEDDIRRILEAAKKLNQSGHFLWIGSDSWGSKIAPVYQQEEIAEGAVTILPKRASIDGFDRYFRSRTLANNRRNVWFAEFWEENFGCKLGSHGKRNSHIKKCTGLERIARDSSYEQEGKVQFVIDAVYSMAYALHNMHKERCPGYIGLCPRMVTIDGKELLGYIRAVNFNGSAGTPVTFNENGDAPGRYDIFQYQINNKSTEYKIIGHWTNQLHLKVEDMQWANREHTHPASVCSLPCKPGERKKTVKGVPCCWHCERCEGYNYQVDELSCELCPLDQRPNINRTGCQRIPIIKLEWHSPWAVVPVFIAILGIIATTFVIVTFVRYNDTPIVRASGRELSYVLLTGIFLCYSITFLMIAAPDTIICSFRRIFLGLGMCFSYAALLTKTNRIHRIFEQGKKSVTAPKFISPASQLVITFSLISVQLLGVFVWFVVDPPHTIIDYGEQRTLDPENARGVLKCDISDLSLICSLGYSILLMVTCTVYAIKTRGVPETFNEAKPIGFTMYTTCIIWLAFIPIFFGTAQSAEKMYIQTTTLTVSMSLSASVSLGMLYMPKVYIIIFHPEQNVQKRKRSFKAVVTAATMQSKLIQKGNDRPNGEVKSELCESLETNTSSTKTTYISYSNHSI

Compound | z-score
CC(C)c1ccccc1NC(=O)c1ccco1 | -0.185
COc1ccc(C2=NOC(C(=O)NCc3ccco3)C2)cc1 (configuration not stated) | 0.00181
Cc1ccc(C(=O)N2CCN(c3cc4c(cc3[N+](=O)[O-])n(C)c(=O)n4C)CC2)cc1 | 0.0636
O=C(CS(=O)(=O)Cc1ccccc1)Nc1cccnc1 | -0.163
CCOC(=O)C1CCCN(C(=O)c2ccccc2NC(C)=O)C1 (configuration not stated) | -0.331
CC1CC(C)CN(C(=O)COC(=O)c2ccc[nH]c2=O)C1 (configuration not stated) | 0.00867
Cc1noc(C)c1S(=O)(=O)N(CC(=O)N1CCCCCC1)c1ccc(C(C)C)cc1 | 0.616
CC(C)Nc1nc(Cl)nc(NCCOc2ccccc2)n1 | -0.163
COCCNCCCCOc1ccc(Br)cc1C | 0.358
Cc1nc(NC(=O)CSc2nnc(-c3ccc4c(c3)OCO4)o2)c(Cl)cc1Cl | -0.316
CC1(C)CC(=O)c2cn3c(nc2C1)nc1ccccc13 | -0.735
CC1(C)CC(=O)C2=C(C1)OC(N)=C(C#N)C2CCc1ccccc1 (configuration not stated) | 0.268
COc1ccc(CNC(=O)C(=O)NCC(c2ccco2)N2CCOCC2)cc1 (configuration not stated) | -0.00571
O=C(CN1C(=O)COc2ccccc21)N(Cc1ccccc1)Cc1ccccn1 | -0.0299
Cc1ccc(C(=O)O)cc1NC(=O)c1cccs1 | 0.0239
CCC1CCCCN1CCCNC(=O)c1ccc2c(=O)n(Cc3ccc(OC)cc3)c(=O)[nH]c2c1 (configuration not stated) | 0.751
COC(=O)c1ccccc1NC(=O)c1cnn2c(C(F)F)cc(C3CC3)nc12 | 0.129
Cc1cs/c(=N\N=C\c2ccccc2)n1Cc1ccco1 | -0.431
C/C(=N\N1CCN(c2ccccc2)CC1)c1ccco1 | -0.205
O=C(Cc1ccccc1)NCc1ccc2c(c1)OCO2 | -0.0592
O=C(CSc1nnc(-c2cccnc2)n1Cc1ccccc1)NCc1ccccc1 | 0.0412
CCOC(=O)N1CCN(C(=O)CN(C2CCCCC2)S(=O)(=O)c2ccc(Cl)cc2)CC1 | -0.273
O=C(CN1N=C(c2ccccc2)CCC1=O)NCCCN1CCc2ccccc2C1 | -0.131

Compound | z-score
O=C(c1ccc(F)cc1)N1CCN=C1c1ccccc1 | -0.225
CCC(SC1=NCCS1)C(=O)Nc1nnc(-c2ccccc2OC)s1 (configuration not stated) | 0.418
CC(C)N1CC(C(=O)Nc2ccccc2)CC1=O (configuration not stated) | -0.146
O=C(NNC(=O)c1ccccc1-c1ccccc1C(=O)O)c1cccc([N+](=O)[O-])c1 | -0.138
CSc1nc(C)cc(OCC(=O)N2CCOCC2)n1 | 0.387
Cc1ccc(-n2c(-c3ccccc3)cc(=O)nc2C)cc1 | -0.963
CCC(C)(C)NC(=O)CN(C(=O)c1snc(C(N)=O)c1N)c1ccc2c(c1)OCCO2 | 0.553
O=C(Nc1ccccc1)NC1CCS(=O)(=O)C1 (configuration not stated) | -0.135
O=C(Cc1ccccc1)Nc1c(C(=O)N2CCOCC2)cnn1-c1ccccc1 | 0.0498
Cc1cccc(NC(=O)Cn2cnc3ccccc3c2=O)c1C | -0.132
CS(=O)(=O)Nc1ccccc1C(=O)N1CCCC1 | 0.598
COC(=O)Cn1c(=O)c2c(nc(Br)n2CC(=O)OC)n(C)c1=O | -0.0502
CSc1ncccc1C(=O)OCc1ccc(C#N)cc1 | 0.318
CCOC(=O)c1[nH]c2cc3c(cc2c1NC(=O)CN1CC(C)CC(C)C1)OCO3 (configuration not stated) | 0.332
Cc1ccnc(N2CCCC(C(=O)NCc3cccs3)C2)n1 (configuration not stated) | 0.259
O=c1c2sc3nc(N4CCOCC4)c4c(c3c2ncn1CCc1ccccc1)CCCC4 | 0.333
CCOC(=O)CC(=O)CSc1nc(-c2ccc3c(c2)OCO3)cc(C(F)(F)F)c1C#N | -0.0481
CC(=O)Nc1cccc(NC(=O)c2cc(C)on2)c1 | 0.686
Cc1ccc(S(=O)(=O)NC(=O)N2CCCC(C)(C)C2)cc1 | -0.204
CC(=O)Nc1ccc(/C=C(\C#N)C(=O)NCc2ccccc2)cc1 | -0.138
CC(C)OC(=O)/C(=C/c1ccc2c(c1)c1ccccc1n2C)NC(=O)c1ccccc1 | 0.233
CCNS(=O)(=O)c1ccc2c(c1)n(C)c(=O)n2C | -0.0452
COC(=O)c1cc(CSc2nnc(NC3CCCCC3)s2)oc1C | 0.307

Compound | z-score
COC(=O)CNC(=O)/C=C/c1ccc(OC)cc1 | -0.132
CNc1nc(OCC(F)(F)F)nc(N2CCN(C34CC5CC(CC(C5)C3)C4)CC2)n1 | 0.418
O=C(COC(=O)/C=C/c1cccc(F)c1)Nc1ccccc1-c1ccccc1 | -0.0868
CCOC(=O)c1nnn(-c2ccc(OC)cc2)c1N | -0.142
CCCCNC(=O)Nc1cc(C(=O)OC)ccc1C | 0.95
Cc1nn(-c2ccccc2)c(C)c1/C=N/NC(=O)c1cc(-c2ccc(Cl)s2)[nH]n1 | -0.78
COc1cc(/C=C2/N=C(C3CCCCC3)OC2=O)cc(OC)c1OC | -0.0279
O=C(NCCO)C1(c2ccc(Cl)cc2)CCCC1 | 0.494
C=CCSc1nnc(NC(=O)c2ccc(Cl)nc2)s1 | 0.00598
CNc1c([N+](=O)[O-])cnn1-c1ccc(C)cc1 | -0.0888
COc1ccc(/C=C(/NC(=O)c2ccc(OC)c(OC)c2)C(=O)NCCc2c[nH]c3ccccc23)cc1 | 0.00549
Cc1ccc(C(=O)NN2CCOCC2)cc1 | 0.0499
CC(C)CC(OC(=O)c1cccs1)C(=O)NCc1cccs1 (configuration not stated) | 0.126
COCc1cc(C)nc(N2CCNCC2)c1C#N | -0.204
O=C(CS(=O)(=O)Cc1ccccc1)N1CCc2ccccc2C1 | 0.261
O=C(Nc1ncnc2sc3c(c12)CCCCC3)c1ccc(F)cc1 | -0.0228
Cc1ccc(NC(=O)NC(=O)N(C(C)C)S(C)(=O)=O)nc1 | -0.0454
Cc1ccccc1C(=O)Nc1ccccc1-c1nnn(CC(=O)Nc2ccc3c(c2)OCCO3)n1 | -0.78
CCCS(=O)(=O)c1nc(S(=O)(=O)c2ccc(C)cc2)c(NCCCN2CCOCC2)s1 | 0.117
O=C(c1cc2ccccc2oc1=O)N1CCSC1c1ccco1 (configuration not stated) | 0.115
O=C(Nc1nccs1)C(NS(=O)(=O)c1ccc(Br)s1)c1ccccc1 (configuration not stated) | -0.117
COC(=O)c1ccccc1NC(=O)c1cc2nc(C3CC3)cc(C(F)(F)F)n2n1 | -0.103
CCOC(=O)Cn1cnc(-c2ccc([N+](=O)[O-])cc2)c1 | -0.164

Compound | z-score
CCOC(=O)CC(=O)CSc1nc(C)cc(-c2cccnc2)c1C#N | -0.182
COc1ccc(NC(=O)COC(=O)c2c(-c3ccccc3)noc2C)cc1 | -0.0243
COc1cc(OC)c(NS(=O)(=O)c2ccc(Cl)c(C(=O)OC(C)C(=O)N3CCCC3)c2)cc1Cl (configuration not stated) | -0.51
COCC(C)n1c(SCC(=O)NC(=O)Nc2ccc3c(c2)OCCO3)nc2ccccc2c1=O (configuration not stated) | -1.25
COC(=O)c1c(NC(=O)c2cccnc2Cl)sc(C(=O)N(C)C)c1C | 0.00718
Cc1ccccc1NC(=O)N1C2CCC1CC(O)(c1cccnc1)C2 (configuration not stated) | -0.936
O=S(=O)(Nc1ccc(Cc2ccncc2)cc1)c1ccc(Cl)c(Cl)c1 | 0.0113
O=C(Nc1ccc(Cl)c([N+](=O)[O-])c1)c1ccncc1 | -0.0927
CC(=O)Nc1cccc(-c2nnc(SCc3ccccc3C#N)n2C)c1 | -0.207
CCN(CC)C(=O)Cn1cnc2ccccc2c1=O | 0.54
COC(=O)c1cc([N+](=O)[O-])c(-n2ccnc2)c([N+](=O)[O-])c1 | -0.181
CCOc1cc([C@H]2[C@@H]3CCCC[C@]3(O)CCN2CC(=O)NCc2ccco2)ccc1O | -0.351
CC1=Nc2ccccc2/C1=C/c1sc(=O)n(CC(=O)N2CCCC2)c1O | -0.124
COc1cc2c3nnc(-c4ccc(F)cc4)c-3cn(Cc3ccccc3)c2cc1OC | -1.5
COc1ccc(NC(=O)c2sc(=S)[nH]c2N)cc1 | -0.083
CCOc1cc2c(cc1C(C)(C)C)NC(=O)CS2 | -0.538
Cc1cc(/C=N\NC(=O)COc2cccc3cccnc23)c(C)n1-c1ccccc1 | -1
CCCNCC1C(Oc2ccc(Cl)cc2)C(=O)N1c1ccccc1C (configuration not stated) | 1.55
Cc1cccc(NC(=O)CC2CCC2)c1 | 0.808
CCCN1CNC(=S)N(c2cccc(C)c2C)C1 | -0.309
CCSc1nc2ccccc2n1C(=O)c1ccc(S(=O)(=O)N2CCCCCC2)cc1 | -0.692
Cc1cccc(NC(=O)CSc2nnc(CNC(=O)c3ccc(S(=O)(=O)N(C)C)cc3)n2-c2ccccc2)c1 | -0.436
Cc1ccccc1NC(=O)c1ccc(-c2ccc(Cl)cc2Cl)o1 | -0.551

Compound | z-score
O=C1CN(C(=O)COC(=O)CCSc2ccccc2Cl)c2ccccc2N1 | -0.22
COc1ccc(C(C)NC(=O)C2CCCO2)cc1OC (configuration not stated) | 0.0559
COc1ccc(C(=O)NCC(=O)NC2=NCCS2)cc1 | -0.432
O=C(O)CCc1ccc(-c2ccc(Br)cc2)n1CC(=O)O | 1.29
COc1cccc(-c2ccc(SCC(=O)N3CCc4ccccc43)nn2)c1 | -0.0256
CCS(=O)(=O)N1CCC(C(=O)NCCc2ccc(C)cc2)CC1 | 0.399
Cc1c(Cl)ccc2c1NC(=O)C21NC(CCC(N)=O)[C@H]2C(=O)N(c3ccc(Cl)cc3)C(=O)[C@H]21 (some centres not stated) | 0.4
O=C(Nc1nnc(SCC(=O)N2CCOCC2)s1)c1ccccc1 | -0.215
CCOc1ccccc1-c1nc2c([nH]1)c(=O)n(C)c(=O)n2C | -0.0815
NC(N)=N/N=C/c1ccccc1 | 0.654
CCN1C(=O)C2(C(C#N)=C(N)Oc3cc(C)oc(=O)c32)c2ccccc21 (configuration not stated) | -0.425
COc1ccccc1-c1nnc(-c2ccc(N3CCOCC3)cc2)o1 | -0.18
COC(CN(C(=O)CCl)C(C(=O)NC1CCCCC1)c1ccccc1C)OC (configuration not stated) | -0.0887
COC(=O)c1cc(C(=O)OC)cc(N2C(=O)CN=C2Nc2nc(C)cc(C)n2)c1 | -0.761
CCc1c(-c2ccccc2)nc(N)c(C#N)c1-c1cccs1 | 0.329
c1ccc(-c2ccccc2OCCCCN2CCCCC2)cc1 | 0.338
CCCNC(=O)COC(=O)CCC(=O)c1ccc(F)cc1 | -0.419
O=C(C1CC(c2ccccc2O)=NO1)N1CCCC1 (configuration not stated) | -0.33
O=C(CNS(=O)(=O)c1ccccc1F)Nc1ccc(N2CCOCC2)cc1 | -0.406
O=C(C1=C(O)C(=O)N(c2ncccn2)C1c1cccc(Cl)c1)c1ccco1 (configuration not stated) | -2.95
